# Data: paper PMC7819943, “Rice protein-binding microarrays: a tool to detect cis-acting elements near promoter regions in rice”
# Some of the results follow.
# Molecular target: T1, OsWOX13 (Oryza sativa, UniProt Q5QMM3 1-267)
# T1 sequence: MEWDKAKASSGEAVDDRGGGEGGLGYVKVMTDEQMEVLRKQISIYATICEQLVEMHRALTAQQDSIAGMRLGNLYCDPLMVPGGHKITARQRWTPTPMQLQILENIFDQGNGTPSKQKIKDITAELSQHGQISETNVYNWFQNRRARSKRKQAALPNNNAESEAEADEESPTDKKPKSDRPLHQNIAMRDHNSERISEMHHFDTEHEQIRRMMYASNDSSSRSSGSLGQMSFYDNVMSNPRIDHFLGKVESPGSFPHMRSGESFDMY
# Assay: protein-binding microarray (RPBM); PBS, 2% BSA, 51.3 ng/ul salmon testes DNA, 50 uM zinc acetate, 200 nM TF, 25 C, 1 h; high values mean tight binding
# Settings: protein: recombinant; tags: N-terminal polyhistidine and DsRed monomer fusion (pET32a); label: CyDye5-dUTP incorporated in the synthesized complementary strand; 3' TTTTT single-stranded linker to array surface; dsDNA, one strand shown
# Summary of the method: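 An Axon 4000B scanner gave the binding signal as per-feature fluorescence intensity in arbitrary units. This followed washing of a custom Agilent array that had been incubated for 1 h at 25 °C with 200 nM protein in PBS, 2% BSA, salmon testes DNA and 50 µM zinc acetate. The proteins were transcription factors fused at the N-terminus to polyhistidine and DsRed, expressed in E. coli BL21-CodonPlus and purified on Ni–NTA.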
row,Sequence,binding signal
1,AGAGATCATGGAATTGATTTTCTCTTTGGGCCTGTTTGGCCGGAGTCACCTAGTGCAG,5960 fluorescence intensity (a.u.)
2,CTTTTCAGTCACATCATCTCCAATTTCAACCAAAATCCAACGGAGTCACCTAGTGCAG,3350 fluorescence intensity (a.u.)
3,GCCATATGATTATTTAATCTGATCCGGAGGATTAAACAAGCGGAGTCACCTAGTGCAG,14100 fluorescence intensity (a.u.)
4,TACAGACTAGTATTAATTAGTTACTAAGCAGATTAGAATTCGGAGTCACCTAGTGCAG,7470 fluorescence intensity (a.u.)
5,CTGTCTAAATCATTTGTCTCCGCATCCATCCACTTTTAGGCGGAGTCACCTAGTGCAG,3600 fluorescence intensity (a.u.)
6,TGAGTATATGATTGAATCTGAAATTGTCCCTTATTCTAGGCGGAGTCACCTAGTGCAG,28800 fluorescence intensity (a.u.)
7,CACACACTGATGACTGACCCCGCCACCTTCTCGTAATTGCCGGAGTCACCTAGTGCAG,6630 fluorescence intensity (a.u.)
8,TTACCAGTGGTGATTAATGATTTGTCACTAGGCCTACATGCGGAGTCACCTAGTGCAG,10000 fluorescence intensity (a.u.)
9,ATTTTAGATTGTATTCCTATTTGGACTCTCCTTTCCTTTTCGGAGTCACCTAGTGCAG,11700 fluorescence intensity (a.u.)
10,GTTTATTTTAACAAATTTGGTGGTTTACACTTCAACGCTTCGGAGTCACCTAGTGCAG,4710 fluorescence intensity (a.u.)
11,AATCAATCTAGTCCTTTCTAGATTGGTCTCATTTGTGTTCCGGAGTCACCTAGTGCAG,31300 fluorescence intensity (a.u.)
12,TGAGTCTAATTACGCCATGATTTTGACAATGTGATGCTACCGGAGTCACCTAGTGCAG,22800 fluorescence intensity (a.u.)
13,CTAAATATTTCATTTGTAAATTAATTTCTATTCTATTCAACGGAGTCACCTAGTGCAG,6510 fluorescence intensity (a.u.)
14,CACAATGTGACAAGAGATTGATATTAGAGAGCATCTCCAGCGGAGTCACCTAGTGCAG,7320 fluorescence intensity (a.u.)
15,CAAATTAGTATGCAATCAGTGAATATATCCACGTAATTTGCGGAGTCACCTAGTGCAG,22100 fluorescence intensity (a.u.)
16,TGGCAATCAATCGATCCCCTCTCTCATCCGCTCCGCTCACCGGAGTCACCTAGTGCAG,7460 fluorescence intensity (a.u.)
17,AACAAAATTTTACTAAATTCGAATTATTTGGTCAGTGTCACGGAGTCACCTAGTGCAG,8550 fluorescence intensity (a.u.)
18,GTGTAATTATACTATAATTGTACTGTAATTACATCTGTCACGGAGTCACCTAGTGCAG,56600 fluorescence intensity (a.u.)
19,CCAGATTGGCTTCGGCTCCTTCTTCCATCGCCGTCCTGTTCGGAGTCACCTAGTGCAG,36700 fluorescence intensity (a.u.)
20,CATGAGATTATTGACTAGCACGGTAAAACAAAAGCCACAACGGAGTCACCTAGTGCAG,7900 fluorescence intensity (a.u.)
21,GCTGATCAGTACTCGATTGATCAATCAGCTATATATACAACGGAGTCACCTAGTGCAG,11900 fluorescence intensity (a.u.)

row,Sequence,binding signal
1,GTTCAGAAAGGATTGACTGATTAAGGAGTACTGTAGAGATCGGAGTCACCTAGTGCAG,9580 fluorescence intensity (a.u.)
2,TTAATTAACGCGATTAATTAGCCGCAAATCTCAATCCAGGCGGAGTCACCTAGTGCAG,53200 fluorescence intensity (a.u.)
3,TTAATAATATAATAGATTTGGCTTCATATTGGTATCAAACCGGAGTCACCTAGTGCAG,7620 fluorescence intensity (a.u.)
4,CTGATTCTTTCCAATCAGGGCAAGAATTATCTGTATCAAGCGGAGTCACCTAGTGCAG,10400 fluorescence intensity (a.u.)
5,CATATACAAGCCAGAGAGATTGATTAATATCCCTGTCGCACGGAGTCACCTAGTGCAG,5600 fluorescence intensity (a.u.)
6,TAAATTAATATATGATTGATCACTTCATAAACATGGAAGTCGGAGTCACCTAGTGCAG,31900 fluorescence intensity (a.u.)
7,AATTAATTAATTAGCAATGCAGCATCGTCGATCATTGACCCGGAGTCACCTAGTGCAG,62500 fluorescence intensity (a.u.)
8,GAGAAATGATTGACGCCATGGATCGGAAGAGGCTGGGTGCCGGAGTCACCTAGTGCAG,51700 fluorescence intensity (a.u.)
9,ATTACATATCAATTTTGTTATATTTACATACTTTCTCCGTCGGAGTCACCTAGTGCAG,5880 fluorescence intensity (a.u.)
10,TAGTCTGACAGATCAATTACAACCTCCGCATTCATCTTAGCGGAGTCACCTAGTGCAG,22900 fluorescence intensity (a.u.)
11,ACTGAAATGCTAATCAAAGTATTCCATTCCAATGGGTTTACGGAGTCACCTAGTGCAG,7770 fluorescence intensity (a.u.)
12,ATATAATTGGTAAAGTATATATATATACATATCCCCAATTCGGAGTCACCTAGTGCAG,27000 fluorescence intensity (a.u.)
13,TTATATTTAATCACCGTGCAATTAATTAAGCGTGGCTGACCGGAGTCACCTAGTGCAG,31300 fluorescence intensity (a.u.)
14,ACTACAAATTAATTAAAGTAGAGTAACGAAATATCCACTGCGGAGTCACCTAGTGCAG,22700 fluorescence intensity (a.u.)
15,TCTGATGTGTTTCTTCATATGATTTTGTGTATGCCGAGTTCGGAGTCACCTAGTGCAG,7590 fluorescence intensity (a.u.)
16,CTTAATTAATTTATTATTAGCAAATATTTACTGTAGCACACGGAGTCACCTAGTGCAG,37800 fluorescence intensity (a.u.)
17,GAAGAAATTAAAACAATGTGACAGAAAAGTTAGAAGTTTGCGGAGTCACCTAGTGCAG,5410 fluorescence intensity (a.u.)
18,AACATTAACTGTTTTCTTTAGCAACTACTGATCGATACACCGGAGTCACCTAGTGCAG,3510 fluorescence intensity (a.u.)
19,GGTGGTGATTTGTGGGCGTTAGCCGCTGACATGTGGGTCCCGGAGTCACCTAGTGCAG,16400 fluorescence intensity (a.u.)
20,TCATGGCGTAATTAGACTCAAAAGATTCGTCTCGCAATTTCGGAGTCACCTAGTGCAG,3330 fluorescence intensity (a.u.)
21,AAATGATTAAAATACATCGGCGTGAAAATATTTATCATGACGGAGTCACCTAGTGCAG,11000 fluorescence intensity (a.u.)
